Measured values as given in the BET-seq Pho4 binding data (Le et al. 2018).
This is one part of the list. Values were computed here from the reads of four pooled replicates and scatter widely.

Target: T1, Pho4 (S. cerevisiae) (UniProt P07270)
T1 sequence: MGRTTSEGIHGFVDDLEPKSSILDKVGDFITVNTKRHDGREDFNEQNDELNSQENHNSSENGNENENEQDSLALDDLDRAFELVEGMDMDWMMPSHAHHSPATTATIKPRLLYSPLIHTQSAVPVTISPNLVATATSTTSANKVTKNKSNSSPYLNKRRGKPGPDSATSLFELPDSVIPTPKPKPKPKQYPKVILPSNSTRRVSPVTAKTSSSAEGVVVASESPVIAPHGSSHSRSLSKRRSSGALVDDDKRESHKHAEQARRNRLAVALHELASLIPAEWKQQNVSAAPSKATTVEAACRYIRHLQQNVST
Test: relative binding free energy (BET-seq); higher = weaker binding
Details: reference: library average

Sequence | relative binding free energy [kcal/mol]
TAGCTCACGTGTGTTG | 0.21
GTAGGCACGTGTAGAA | -0.02
GTGTTCACGTGTTGCT | 0.24
GGCGTCACGTGCGGTA | 0.07
CAGTTCACGTGGGTTT | 0.29
TGTAGCACGTGACTTG | 0
ATTGGCACGTGCTTAG | -0.34
TTTGACACGTGTACGG | 0.02
TAAGTCACGTGCGGAG | 0.09
AGCGTCACGTGTAATT | 0.12
TTTCGCACGTGTTGAG | -0.11
TAATGCACGTGGGCGA | -0.13
GGTTCCACGTGGGGCA | 0.05
TTAATCACGTGGATGA | 0.32
GTAGGCACGTGTGCTG | -0.07
GTGACCACGTGGGGGC | -0.14
AGGATCACGTGAGGAT | 0.21
GTGAACACGTGATTTG | 0.01
CGTTACACGTGGTGCG | -0.12
CAGGTCACGTGGGTCA | 0
GCGTTCACGTGAGTAT | 0.45
CGGCTCACGTGTGGCG | 0.39
GGTGTCACGTGTCGTT | 0.19
GGATCCACGTGTTGGG | 0.01
GAAGGCACGTGTTGTA | -0.02
CGTTACACGTGGAGAT | 0.3

Sequence | relative binding free energy [kcal/mol]
TGTGTCACGTGTGGAC | 0.1
TTGGGCACGTGCCAGG | -0.17
CGCGTCACGTGGTATT | 0.09
GGCGGCACGTGTGGTA | -0.04
GGTATCACGTGCGTAT | 0.19
TTGTTCACGTGGCCTA | 0.17
TAGATCACGTGGTTTA | 0.12
TCGTTCACGTGTGAAT | 0.33
TGGCACACGTGGGTTT | 0
CAGGGCACGTGTAGTT | -0.09
GTAAACACGTGTGAGG | 0.18
GAGGCCACGTGCGGGT | -0.01
TTTATCACGTGGCGGA | 0.08
GTGATCACGTGTGGTC | 0.29
TTAGGCACGTGAAGCT | 0
TGGTGCACGTGTCTTA | -0.11
AATAGCACGTGAGGGG | 0.27
TATTTCACGTGACATT | 0.27
TATTACACGTGGCGTA | 0.01
TGGTGCACGTGCAAAT | 0.02
CGAGGCACGTGATGTA | -0.04
CTATACACGTGTAAGG | 0.23
TTTTGCACGTGTGGGC | 0.09
GGTTTCACGTGGGCAT | 0.06
TTTAACACGTGCTGGC | 0.08
CGTGGCACGTGTGTGC | -0.1

Sequence | relative binding free energy [kcal/mol]
CGTAGCACGTGGGCTT | -0.12
GTGTACACGTGTTCAG | 0.14
TTTGTCACGTGGTTTT | 0.11
GCTTGCACGTGGGGAT | -0.17
TTTGGCACGTGTGGCT | 0.11
AAGTTCACGTGGATCT | 0.37
GTTAGCACGTGGCGTG | -0.17
TTCTGCACGTGGTGGG | 0.01
CTTTGCACGTGCTGTG | -0.06
TGGTACACGTGCTGTG | 0.06
GGTGACACGTGTTACT | 0.15
GATTTCACGTGGATAA | 0.32
GTGTGCACGTGTTGAG | 0.02
AGGGGCACGTGGTGGC | -0.13
ATTGCCACGTGATTGG | 0.2
ATTACCACGTGTTGAG | 0.08
TTGCACACGTGTGATG | 0.11
TATGACACGTGGACTG | 0.06
AGGTTCACGTGGCGCT | 0.23
AAAGTCACGTGTAGTA | 0.04
GCGAGCACGTGGATGG | -0.1
CATGCCACGTGTTGTT | -0.07
ATGGGCACGTGTATGG | -0.05
TGAGACACGTGCTGTT | -0.07
TTCTTCACGTGATGTG | 0.3
GAAGGCACGTGATAGT | 0.03

Sequence | relative binding free energy [kcal/mol]
GTTTACACGTGTAATG | 0.18
ACGTGCACGTGCTTGG | -0.16
TGTTTCACGTGTACTC | 0.28
GTAAGCACGTGGTAGT | -0.22
ATTTTCACGTGATTAT | 0.3
TTGAGCACGTGCGTAT | -0.11
TAAGTCACGTGATGTT | 0.3
CCAGGCACGTGTTTGG | -0.05
CGGGTCACGTGGGCTT | 0.01
GATGTCACGTGGGTAC | 0.15
CGATGCACGTGTTGAT | -0.03
CTAGGCACGTGCATGT | -0.01
AGGTTCACGTGGGTGT | 0.22
ATGAACACGTGTTATA | 0.07
CGGTTCACGTGTAGCT | 0.33
TTGGTCACGTGTCCGG | 0.2
TGCATCACGTGCTTGT | 0.2
GGGGCCACGTGTTTTG | 0.02
ACGCGCACGTGGAGTG | -0.14
TTCAACACGTGGGTAT | -0.18
TAGGTCACGTGAGACT | 0.34
TATTACACGTGCTAGG | 0.13
TTTGTCACGTGATCGT | 0.3
TGTGACACGTGGTTCG | 0.05
CGTGTCACGTGATGGG | 0.1
GGGCCCACGTGAGGTG | 0.09

Sequence | relative binding free energy [kcal/mol]
ACGTACACGTGTTGGG | 0.06
ATGGACACGTGGAGAT | 0.12
TCTTTCACGTGTGTTG | 0.27
TCTGGCACGTGAGAGG | 0.05
ACTTTCACGTGAGTTA | 0.45
GGAGTCACGTGTAGGA | 0.12
GTTGGCACGTGTACAG | -0.07
TTGTACACGTGGGAGT | 0.04
TGGTACACGTGTCGTA | -0.04
GTTGTCACGTGAGATC | 0.32
TTGACCACGTGTGGAT | 0.07
TAGGGCACGTGTTTAG | -0.17
GTTTACACGTGTAGTC | 0.16
GTAAGCACGTGTAGTG | -0.06
GGTGGCACGTGCAAGT | -0.13
ATCGTCACGTGGAGTG | 0.11
TACTGCACGTGGTAGT | -0.13
TGGGCCACGTGTAAGT | -0.02
TGGTTCACGTGTTATG | 0.26
TGATTCACGTGTGCCT | 0.26
TTTAGCACGTGGCACG | -0.09
TAGGGCACGTGGAGTA | -0.18
ACATTCACGTGTGGGG | 0.32
TCATGCACGTGGTATT | -0.12
TGCATCACGTGTAAGG | 0.23
AGAGGCACGTGGATGA | -0.06

Sequence | relative binding free energy [kcal/mol]
GGGGTCACGTGTGTCG | 0.21
AGAAACACGTGGTGTT | -0.04
GGACGCACGTGGTGGG | -0.18
TTTTCCACGTGTGGTA | 0.09
TTCTACACGTGTTTAT | 0.17
TTTATCACGTGATGTT | 0.21
ATATTCACGTGGTTGT | 0.33
AAGGGCACGTGGTAGA | -0.27
GTTTGCACGTGTATAA | 0.19
TGAGGCACGTGTGGAT | 0.03
GTAAGCACGTGCGAGG | -0.14
GTTTGCACGTGATTGG | 0.18
TCGGTCACGTGAGATG | 0.4
TGGTCCACGTGCGTGT | 0.02
ATGGACACGTGTTGTT | 0.1
GGGAGCACGTGTTGGC | -0.08
GTGCTCACGTGGGCGT | 0.06
GCGAGCACGTGGTTGT | -0.14
GGCGGCACGTGTGGCC | -0.02
GTTCTCACGTGTGGGT | 0.16
GTGTCCACGTGTTATA | 0.09
AAAGGCACGTGCTTTG | -0.06
TATTTCACGTGTTAGG | 0.37
TGGGGCACGTGTTCTG | -0.14
TGGGGCACGTGGTGGC | -0.12
GTTTACACGTGGGGCT | -0.1

Sequence | relative binding free energy [kcal/mol]
GCTAGCACGTGGAGGG | -0.07
TTGCTCACGTGAAGGT | 0.21
AACGGCACGTGTGATT | 0.16
GTTAGCACGTGATCGT | 0.14
GTAATCACGTGTATAG | 0.21
GGGGTCACGTGGTTTG | 0.21
TTGAGCACGTGTCTTT | -0.2
TATGCCACGTGACGGG | -0.01
ATATACACGTGGGTTA | -0.15
GTATGCACGTGCGTGA | -0.02
TGGATCACGTGTACAG | 0.25
GGGGCCACGTGGCTGG | -0.02
AGTGGCACGTGGATGC | -0.07
TTAGACACGTGGAGGT | 0.01
TTTATCACGTGAGGGC | 0.23
TTTATCACGTGAGTAC | 0.38
GTAAGCACGTGTTAGG | 0.04
AGTAGCACGTGGTGCA | -0.31
TTAAGCACGTGGGGGT | -0.23
ACGGACACGTGGGTAT | -0.06
AGAAGCACGTGTAAGG | 0.04
GGTAGCACGTGTGTAT | 0.03
AGGGGCACGTGGAAGC | -0.15
TGGAGCACGTGAGTTA | 0.14
TTAGACACGTGCGTGT | -0.16
TTAGGCACGTGCTGCA | -0.16

Sequence | relative binding free energy [kcal/mol]
GATTTCACGTGTTGAC | 0.3
GGAAGCACGTGGGTAG | -0.23
GTTTACACGTGTGCGG | 0.24
ATCGCCACGTGTTTGG | -0.01
AGGGACACGTGATGTA | 0.16
CTTGTCACGTGTGTCT | 0.13
ATCCTCACGTGTGGTT | 0.3
GTTGACACGTGAGTGT | 0.32
CAGGGCACGTGGTAGT | -0.19
AGATTCACGTGGAGCT | 0.38
TTTGCCACGTGAAGTT | 0.16
GTTCTCACGTGAAGGG | 0.4
TTGTACACGTGTATAT | 0.03
AGGTTCACGTGTAATT | 0.34
TGGGGCACGTGTTGAC | 0.03
GGTATCACGTGGCTGA | 0.2
AATTCCACGTGGATGG | 0.15
GTGGTCACGTGGTTGC | 0.14
CGTGGCACGTGTGAAT | 0.02
AGTTTCACGTGGATCT | 0.25
CTTTGCACGTGTTGAT | -0.03
GGTTGCACGTGTTCTA | 0.05
TGGATCACGTGATTAT | 0.23
GATCGCACGTGGGTAT | -0.09
CTGTACACGTGTTGTA | 0.05
CGTGGCACGTGGCCTG | -0.17

Sequence | relative binding free energy [kcal/mol]
TTTGGCACGTGATATG | -0.02
GAGTTCACGTGATCTT | 0.48
TGGGCCACGTGTGTAG | -0.08
TTCAACACGTGGAGTG | 0.05
TTAGTCACGTGTGCAG | 0.05
TTATGCACGTGAGTAA | 0.17
GGACTCACGTGTTTGA | 0.24
AGGATCACGTGGAGAG | 0.22
CCTGTCACGTGGTGGG | 0.03
GGTAGCACGTGGATGC | -0.03
TCAGACACGTGTTTTT | 0.05
TCTGTCACGTGGCGGT | 0.01
TTGGTCACGTGTGTGA | 0.22
CAGTACACGTGAGGGT | 0.2
CTTGGCACGTGGGAGG | -0.13
TGTTTCACGTGGTGCA | 0.18
TTATGCACGTGTAACG | 0.05
TCTGGCACGTGTGGTT | 0.05
TGTGTCACGTGTCCTA | 0.18
GTGAACACGTGGTCTG | 0.02
TATGTCACGTGAAAGT | 0.23
ATGTGCACGTGGGCGT | -0.16
